Laboratory results as given in patent publication US20060094649A1, “Hla-a1,-a2,-a3,-a24,-b7, and-b44 tumor associated antigen peptides and compositions” (priority 2002, published 2006).

Test system: tumor cell lines expressing the TAA
Test: CTL recognition of endogenous targets (tumor cell lines expressing the TAA)
Assay type: cell-based, human
Details: SW480 (A3−, CEA+) and SW403 (A3+, CEA+); only wells positive for peptide-pulsed targets

Compound: CC[C@H](C)[C@H](NC(=O)CNC(=O)[C@H](Cc1ccccc1)NC(=O)[C@@H](NC(=O)[C@@H](N)C(C)C)C(C)C)C(=O)N[C@@H](CC(C)C)C(=O)N[C@H](C(=O)N[C@@H](CCCCN)C(=O)N[C@@H](CCCNC(=N)N)C(=O)O)[C@@H](C)CC [compound 57]
- Number of CTL inductions yielding positive responses/total tested, Tumor target cell line: 0/1
